From publication PMC4336329 (PLoS ONE, 2015)
In all, about 310,000 compounds went through this assay and about 2,200 (0.71%) showed an effect of 50% or more. The effect is printed as a negative number. This is one part of the list.

target: human ether-à-go-go-related gene (hERG) potassium channel (human, UniProt Q12809); assay: primary screen, population patch clamp on CHO cells stably expressing hERG
Sequence (Q12809 whole entry, looked up): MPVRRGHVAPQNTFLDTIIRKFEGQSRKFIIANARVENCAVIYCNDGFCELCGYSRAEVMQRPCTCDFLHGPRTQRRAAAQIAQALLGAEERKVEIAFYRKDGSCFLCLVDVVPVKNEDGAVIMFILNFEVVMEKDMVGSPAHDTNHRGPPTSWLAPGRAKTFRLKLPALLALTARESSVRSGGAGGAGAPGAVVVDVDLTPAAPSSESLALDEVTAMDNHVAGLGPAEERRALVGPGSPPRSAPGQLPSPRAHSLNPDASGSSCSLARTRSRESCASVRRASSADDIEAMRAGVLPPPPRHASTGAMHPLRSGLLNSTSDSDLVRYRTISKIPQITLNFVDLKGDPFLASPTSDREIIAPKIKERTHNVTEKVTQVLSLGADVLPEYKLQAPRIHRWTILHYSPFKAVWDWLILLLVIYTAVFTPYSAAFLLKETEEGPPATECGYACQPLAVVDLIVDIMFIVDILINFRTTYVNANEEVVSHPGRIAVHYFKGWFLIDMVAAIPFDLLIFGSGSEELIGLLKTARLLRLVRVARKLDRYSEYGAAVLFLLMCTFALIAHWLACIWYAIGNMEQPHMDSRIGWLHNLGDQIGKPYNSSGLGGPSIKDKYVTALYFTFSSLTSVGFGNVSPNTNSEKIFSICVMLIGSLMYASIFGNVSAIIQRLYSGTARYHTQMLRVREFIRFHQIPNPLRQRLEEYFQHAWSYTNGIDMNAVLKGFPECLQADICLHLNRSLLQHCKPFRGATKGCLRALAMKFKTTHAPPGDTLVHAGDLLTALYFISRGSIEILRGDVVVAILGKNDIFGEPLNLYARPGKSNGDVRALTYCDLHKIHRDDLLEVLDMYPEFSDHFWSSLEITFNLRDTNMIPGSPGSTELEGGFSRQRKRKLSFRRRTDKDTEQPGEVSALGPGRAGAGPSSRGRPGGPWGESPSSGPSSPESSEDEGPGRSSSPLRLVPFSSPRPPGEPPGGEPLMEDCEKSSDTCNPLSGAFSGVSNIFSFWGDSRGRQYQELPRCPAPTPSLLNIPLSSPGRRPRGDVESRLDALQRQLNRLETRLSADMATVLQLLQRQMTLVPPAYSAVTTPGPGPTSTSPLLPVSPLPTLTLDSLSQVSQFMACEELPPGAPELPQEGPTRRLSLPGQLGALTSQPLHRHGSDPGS

| Compound | hERG current change (%, negative = inhibition) at 1uM [%] |
| --- | --- |
| CN(C)CCNC(=O)c1cccc(S(=O)(=O)Nc2ccc(F)cc2)c1.Cl | 19.6 |
| COC(=O)c1c(NC(=O)/C=C/C(=O)O)sc(C)c1-c1ccc(C)c(C)c1 | 5.79 |
| O=S(=O)(c1cc(Cl)cc(Cl)c1)N1CCCC1c1nc2ccccc2s1 (centres unmarked) | 9.87 |
| CN(C)c1cccc(C(=O)N/N=C/c2ccccc2F)c1 | 6.01 |
| CS(=O)(=O)c1nc(S(=O)(=O)c2ccc(Cl)cc2)c(N2CCC(C(N)=O)CC2)s1 | -6.12 |
| CCc1cc(-c2[nH]ncc2-c2ccc3c(c2)OCO3)c(O)cc1O | 8.12 |
| Cc1ccc(NC(=O)C2=CC(c3cccs3)=NS(=O)(=O)N2C)cc1 | 9.67 |
| O=C1C2C3C=CC(C3)C2C(=O)N1c1nccs1 (centres unmarked) | 20.1 |
| COc1ccc(C(=O)N2CCCCCC2)cc1S(=O)(=O)N1CCOCC1 | 12.7 |
| O=C(O)c1nn(CCOc2ccc(Br)cc2)c(=O)c2ccccc12 | 16.6 |
| CN1C(=O)[C@H]2[C@@H](/C=C/c3ccccc3)N3C(=O)CN(Cc4ccc(-c5ccccc5)cc4)C(=O)[C@@]3(Cc3ccccc3)[C@H]2C1=O | 8.13 |
| O=C(Nc1ccc(Cl)cc1)N1CCN(c2ncccn2)CC1 | 3.45 |
| COc1cc(/C=N/NC(=O)c2cnccn2)cc(OC)c1OC | 2.4 |
| O=C(O)c1ccc(CSc2nnnn2C2CCCCC2)cc1 | -1.94 |
| CC(NC(=O)c1ccc(NC2=NC3CS(=O)(=O)CC3S2)cc1)c1ccccc1 (centres unmarked) | 12.7 |
| Cc1c(NC(=O)c2ccc(CN3CCc4ccccc4C3)cc2)c(=O)n(-c2ccccc2)n1C | 4.18 |
| O=c1c2[nH]c3ccccc3c2ncn1CCCn1ccnc1 | -12 |
| COc1ccc(Nc2nc(C)cc(C)c2C(N)=O)c(OC)c1 | 12.5 |
| O=C(O)c1cc([N+](=O)[O-])ccc1N1CCC(Cc2ccccc2)CC1 | 7.61 |

| Compound | hERG current change (%, negative = inhibition) at 1uM [%] |
| --- | --- |
| Cc1cc(C)c2c(CC(=O)NCc3ccco3)coc2c1 | 3.41 |
| O=Cc1c(C(=O)O)n(CC(=O)O)c2ccccc12 | 6.49 |
| CC(C)=CCC(C)(C)CNC(=O)NC1CCCCC1 | 9.18 |
| OCCN=C1CCCc2c1[nH]c1ccc(Cl)cc21 | 6.5 |
| Cc1ncc(N=Nc2ccccc2)c(-c2ccccc2)n1 | 18.4 |
| C=CCN1C(=O)/C(=C/c2ccc(O)cc2)S/C1=N/c1nccs1 | -4.68 |
| Brc1ccc(N/N=C(/N=Nc2nn[nH]n2)c2ccccc2)cc1 | 12.8 |
| CCN(CC)S(=O)(=O)c1ccc(NC(=O)COC(=O)CCc2cc(OC)c(OC)c(OC)c2)cc1 | 10.2 |
| Cl.N=c1sccn1CC(=O)Nc1ccccc1Sc1ccccc1 | -2.61 |
| COc1ccc(Cl)cc1NC(=S)NN1CCOCC1 | 26 |
| Cc1ccc(CC(CC(=O)O)C(=O)NCc2ccccc2)cc1 (centres unmarked) | 15.3 |
| CCN(CC)CCn1c2c(c(SCC(=O)Nc3ccc(C)c(F)c3)nc1=O)CCCC2 | -43.9 |
| COc1ccc(-c2cc(NCCc3ccncc3)n3ncnc3n2)cc1 | -19.9 |
| CCOC(=O)Cc1csc(NC(=O)c2ccc(Br)o2)n1 | 11 |
| CC(C)NC(=O)C1CCN(C2CCN(C(=O)Cc3ccc4c(c3)OCO4)CC2)CC1 | 4.98 |
| O=C(NCc1ccco1)C1CC(O)CN1C(=O)Nc1ccccc1 (centres unmarked) | 19.4 |
| CCOC(=O)c1cc(CN2CCOCC2)oc1-c1ccccc1 | -8.28 |
| Cc1ccc(S(=O)(=O)N2CCOCC2)cc1NC(=O)CN1CCC(Cc2ccccc2)CC1.O=C(O)C(=O)O | -4.02 |
| Cc1cc(Oc2ccc(Cl)cc2)nc(-c2ccccc2O)n1 | 6.44 |

| Compound | hERG current change (%, negative = inhibition) at 1uM [%] |
| --- | --- |
| O=C(O)C1Nc2ccc(OC(F)(F)F)cc2C2C=CCC12 (centres unmarked) | 15.3 |
| COc1ccc(C(=O)NCC(C)(C)CNC(=O)c2ccc(OC)c(OC)c2)cc1OC | -0.0282 |
| COc1ccc(NC(=O)Cn2nnc(C(=O)NCc3ccc(C)cc3)c2N)cc1OC | 17 |
| Cc1ccc(OCCC(=O)OCC(=O)NCCc2ccccc2)cc1 | 16.5 |
| Cc1ccc(OCc2nnc(SC(C)C(=O)O)n2-c2ccccc2)cc1 (centres unmarked) | 18.1 |
| Cc1ccc(C(=O)NCCc2ccccc2)cc1 | 5.34 |
| N#Cc1c(N)n(-c2ccc(N)cc2)c2nc3ccccc3nc12 | 12 |
| COc1ccccc1CNC(=O)C1CCCN(S(=O)(=O)c2ccc3c(c2)CC(C)N3C(C)=O)C1 (centres unmarked) | -0.514 |
| COc1ccc(S(=O)(=O)N(C)CC(=O)NC2CCCCC2)cc1Cl | -1.1 |
| COc1cccc2c1OCC(C(=O)NCc1ccc(Cl)cc1Cl)=C2 | 14.9 |
| Cc1nc2ccc(NC(=O)c3ccc(S(=O)(=O)N(C)c4ccccc4)cc3)cc2s1 | 4.8 |
| NNc1nc2c(Cl)c(Cl)ccc2s1 | 20.3 |
| COc1ccc(C)cc1NC(=O)C1CCN(C(=O)C2CC(=O)N(c3ccc(C)cc3)C2)CC1 (centres unmarked) | 9.6 |
| CCn1c(SCC(=O)c2ccc(Br)cc2)nnc1C(C)NC(=O)Cc1ccc(OC)cc1 (centres unmarked) | -19.1 |
| COc1ccc(C2=CC(=O)C[C@H](c3ccc(OC)c(OC)c3)C2)cn1 | 7.11 |
| O=C1NN(c2ccc(F)cc2)C(=O)/C1=C\C=C\c1ccco1 | 10.6 |
| Cc1nc(-c2cccc(N)c2)cs1 | 9.09 |
| CCCN(CC(=O)Nc1ccccc1C)C(=O)c1ccc(-c2ccc([N+](=O)[O-])cc2)o1 | 1.51 |
